# Reference: patent US20070280957A1, “Change of the Load State of Mhc Molecules” (priority 2004, published 2007)
# Legend:
# [1] = test system: HLA-DR1 (DRB1*0101) transgenic mice; test: Vaccination with ABL protein domain in complete Freund's adjuvant, ELISPOT of lymph node cells; type: in vivo; settings: 10 mM as additive to antigen emulsion in complete Freund's adjuvant, subcutaneous, 12 days
# Method: In this example, HLA-DR1 (DRB1*0101) transgenic mice were immunised with 10 mg of a domain of the ABL protein prepared by recombinant methods. The immunisation was carried out by subcutaneous administration of an emulsion of the antigen in complete Freund's adjuvant, which in the case of one group was additionally supplemented with 10 mM AdEtOH. The immune response triggered by the vaccination was then checked 12 days later by means of an ELISPOT assay. To this end, in each case about 10^6 lymph node cells/well were transferred to culture plates coated with membrane filters and restimulated with titrated amounts of the antigen. Activation of a cell leads to the release of cytokines, such as, for example, IFN-g, which can be detected on the membrane by means of corresponding antibodies (see FIG. 15).
# [2] = test system: HLA-DR molecules with a deep or flat P1 pocket (β86G and β86V); test: T-cell assays on HLA-DR molecules with a deep or flat P1 pocket; type: cell-based, human; settings: dose-activity curves
# Method: In the following, the catalysis of HLA loading by pCP was determined for the purposes of comparison. […] These dose-activity curves show the activity of the two catalysts on HLA-DR molecules with a deep or flat P1 pocket {β86G and β86V} as well as on the mouse MHC class II molecules H2-Ek and H2-Ak.
smiles,measurement,setting,value
"OCCC12CC3CC(CC(C3)C1)C2 [I 1, 2-(1-adamantyl)-ethanol]",T-cells reacting against the ABL domain (ELISPOT spots),[1],markedly more T-cells
same,efficiency of the vaccination,[1],considerable increase in the efficiency of the vaccination
same,activity on HLA-DR molecules with deep or flat P1 pocket,[2],greater but is directed towards those HLA-DR molecules which possess the deep P1 pocket
